Laboratory results taken from the supplement of paper PMC9334596.
Several values for one entry are separate records, joined by “and”; a condition that tells them apart may be missing. Identical values can stand only once. Over roughly 5,300 compounds, “PER2::LUC luminescence relative to vehicle control” has its median near 0.96; the highest 2% begin near 1.3. Some of the results follow.

Test system: mPer2Luc MEF
Test: PER2::LUC luminescence relative to vehicle control (fold of vehicle); higher = higher PER2::LUC reporter signal
Conditions: 10 µM
Method in brief: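 Compounds from commercial libraries were added at 10 μM to 384-well plates seeded 48 h earlier with ~3000 mPer2Luc mouse embryonic fibroblasts per well. The cells were kept in DMEM with 10% FBS at 37 °C and 5% CO2. Luminescence was read with ONE-Glo 24 h and 30 h after treatment, then an alamarBlue viability assay was run. Values are PER2::LUC luminescence relative to vehicle control, as fold change.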

Structure (SMILES) | PER2::LUC luminescence (time after treatment 24 h) | PER2::LUC luminescence (time after treatment 30 h)
Cc1c(C(N)=O)cc([N+](=O)[O-])cc1[N+](=O)[O-] | 0.975 | 0.949
C=CCN1CCN(c2nc3ccccc3nc2C#N)CC1 | 0.928 | 1
CC(C)C(=O)OC[C@H]1O[C@@H](n2ccc(N)nc2=O)[C@](C)(F)[C@@H]1OC(=O)C(C)C | 1.07 | 1.03
NC(N)=NCCNS(=O)(=O)c1cccc2cnccc12 | 1.13 | 1
CN(C)c1ccc2nc3ccc(=[N+](C)C)cc-3sc2c1 | 0.944 and 0.77 | 0.769 and 0.373
COc1ccc(C2C(=O)c3ccccc3C2=O)cc1 | 1.08 | 1.36
Cc1cccc(C)c1NC(=O)C1CCCCN1C (stereo not drawn) | 0.744 | 1
CCc1nc(-c2cccc(C)c2)c(-c2ccnc(NC(=O)c3ccccc3)c2)s1 | 0.637 | 0.991
Cc1ncc([N+](=O)[O-])n1CC(O)CCl (stereo not drawn) | 1.03 | 0.7
COc1cc(OC)c2c(OC)c(-c3ccc4c(c3)OCO4)c(=O)oc2c1 | 1.02 | 1.21
CN1C(C(=O)Nc2ccccn2)=C(O)c2sccc2S1(=O)=O | 1.16 | 0.971
N#Cc1ccc2[nH]cc(CCCCN3CCN(c4ccc5oc(C(N)=O)cc5c4)CC3)c2c1 | 0.548 and 0.415 | 0.682 and 0.756
CCCOc1ccc2c(c1)CC[C@@H]1[C@@H]2CC[C@]2(C)[C@@H](OC)CC[C@@H]12 | 0.458 | 0.736
Cc1cccc(/C=N/Nc2cc(N3CCOCC3)n3nc(-c4ccncc4)cc3n2)c1 | 0.081 | 0.064
COc1ccccc1C(=O)Nc1cccc(NC(=O)c2cccc(C)c2)c1 | 0.917 | 0.985
FC(F)(F)c1ccc(CNc2ccc(Cc3c[nH]c4ncc(Cl)cc34)cn2)cn1 | 0.702 | 0.701
O=C(Nc1ccccc1)c1ccccc1O | 1.27 | 1.08
C=C1C(=O)[C@]23[C@H](CC[C@@H]1[C@@H]2O)[C@]12CO[C@@]3(O)[C@H](O)[C@H]1C(C)(C)CC[C@@H]2O | 0.98 | 1.02
COC(=O)C[C@H]1C(C)(C)C(=O)[C@@H]2CC3=C(CC[C@]4(C)C3=CC(=O)O[C@H]4c3ccoc3)[C@@]1(C)C2=O | 0.963 | 1.02
CN(C)[C@@H]1c2onc(OCc3ccccc3)c2C(=O)[C@@]2(O[Si](C)(C)C(C)(C)C)C(=O)C=CC[C@@H]12 | 0.723 | 0.75
CC(=O)c1cc([N+](=O)[O-])c(Sc2cccc(Cl)c2Cl)s1 | 1 | 0.969
COc1ccc2c(c1OC)OC[C@@H](c1ccc(OC)c(OC)c1OC)C2 | 1.06 | 0.944
Cn1c(=O)c2[nH]cnc2n(C)c1=O | 1.05 and 0.927 | 1.04 and 0.953 and 0.859
CS(=O)(=O)c1ccc(C2=C(c3ccccc3)C(=O)OC2)cc1 | 0.844 | 0.925
